This note sets out measurements from the supplement of paper PMC7125110.

± gives the standard error. Variants at the background level are over-represented here. Where only a bound is given, the exact number is not on record here.

B1: glmS ribozyme (parent)
chain: AUAAAAGCGCCAGAACUACAGAAAUGUAGUUGACGAGGAGGAGGUUUAUCGAAUUUUCGGCGGAUGCCUCCAAA

Holding throughout (conditions): with glucosamine-6-phosphate
Data set [1] covers variants of B1. The data set can be described thus: self-cleavage kobs at 40 uM GlcN6P; higher = faster cleavage; RNA array. Summed up:
(§1)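 Over ~14 h at 37 °C, tiles were imaged as glucosamine-6-phosphate (40 μM to 10 mM) in HEPES/KCl/Mg(OAc)2 buffer flowed across sequenced MiSeq chips. The chips carried barcoded ribozyme variants transcribed in situ by E. coli RNA polymerase and tracked with a hybridised Cy3 probe. After normalisation to baseline and to non-cleaving reference variants, one- or two-exponential decay fits of per-tile medians gave kobs. kcat and KM followed from weighted Michaelis–Menten fits across concentrations.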

Variants of B1 are the subject of data set [2]. The data set can be described thus: self-cleavage kobs at 640 uM GlcN6P; higher = faster cleavage; RNA array. Summed up:
as §1

In data set [3] the parent is B1. The data set can be described thus: self-cleavage kobs at 160 uM GlcN6P; higher = faster cleavage; RNA array. Summed up: as §1
In data set [4] the parent is B1. Kind of data set: self-cleavage kobs at 10000 uM GlcN6P; higher = faster cleavage; RNA array. Summed up: as §1
Variants of B1 are the subject of data set [5]. Kind of data set: self-cleavage kobs at 2500 uM GlcN6P; higher = faster cleavage; RNA array. In short, it runs like this:
as §1

On to G29U A52C C71U, for which the “self-cleavage kobs at 40 uM GlcN6P” value with glucosamine-6-phosphate [1] is below 1e-05 s⁻¹. In addition, the “self-cleavage kobs at 640 uM GlcN6P” value in the data set with glucosamine-6-phosphate [2] was below 1e-05 s⁻¹. Also, the “self-cleavage kobs at 160 uM GlcN6P” value with glucosamine-6-phosphate [3] is below 1e-05 s⁻¹. Moreover, the “self-cleavage kobs at 10000 uM GlcN6P” value in the data set with glucosamine-6-phosphate [4] was below 1e-05 s⁻¹.

With G29C G40U G41U A52U, the “self-cleavage kobs at 40 uM GlcN6P” value with glucosamine-6-phosphate [1] is below 1e-05 s⁻¹. Besides, the “self-cleavage kobs at 10000 uM GlcN6P” value with glucosamine-6-phosphate [4] was below 1e-05 s⁻¹.

A33G C67U: the “self-cleavage kobs at 40 uM GlcN6P” value with glucosamine-6-phosphate [1] is below 1e-05 s⁻¹. The “self-cleavage kobs at 10000 uM GlcN6P” value in the data set with glucosamine-6-phosphate [4] was below 1e-05 s⁻¹.

Turning to A33G A39U U54A, the “self-cleavage kobs at 40 uM GlcN6P” value in the data set with glucosamine-6-phosphate [1] is below 1e-05 s⁻¹. The “self-cleavage kobs at 10000 uM GlcN6P” value with glucosamine-6-phosphate [4] was below 1e-05 s⁻¹.

For U31G A48U, in the data set with glucosamine-6-phosphate [1], the “self-cleavage kobs at 40 uM GlcN6P” value was below 1e-05 s⁻¹. The “self-cleavage kobs at 2500 uM GlcN6P” value in the data set with glucosamine-6-phosphate [5] was determined as 8.46e-05 ± 1.6e-05 s⁻¹. Also, the “self-cleavage kobs at 10000 uM GlcN6P” value with glucosamine-6-phosphate [4] came to 5.93e-05 ± 2.1e-05 s⁻¹.

On to A33C G41C, for which the “self-cleavage kobs at 40 uM GlcN6P” value with glucosamine-6-phosphate [1] was below 1e-05 s⁻¹. The “self-cleavage kobs at 640 uM GlcN6P” value with glucosamine-6-phosphate [2] was below 1e-05 s⁻¹. Further, in the data set with glucosamine-6-phosphate [3], the “self-cleavage kobs at 160 uM GlcN6P” value is below 1e-05 s⁻¹. In the data set with glucosamine-6-phosphate [5], the “self-cleavage kobs at 2500 uM GlcN6P” value was below 1e-05 s⁻¹. Further, the “self-cleavage kobs at 10000 uM GlcN6P” value in the data set with glucosamine-6-phosphate [4] was below 1e-05 s⁻¹.

Consider C34G G51U, for which the “self-cleavage kobs at 40 uM GlcN6P” value with glucosamine-6-phosphate [1] was below 1e-05 s⁻¹. Moreover, the “self-cleavage kobs at 160 uM GlcN6P” value with glucosamine-6-phosphate [3] is below 1e-05 s⁻¹. Further, in the data set with glucosamine-6-phosphate [4], the “self-cleavage kobs at 10000 uM GlcN6P” value was below 1e-05 s⁻¹.

Regarding C34A G35U G37A U49A U56C, the “self-cleavage kobs at 40 uM GlcN6P” value in the data set with glucosamine-6-phosphate [1] is below 1e-05 s⁻¹.

With A15U G37C C70G, the “self-cleavage kobs at 40 uM GlcN6P” value in the data set with glucosamine-6-phosphate [1] is below 1e-05 s⁻¹.

In the case of A36U U46C, the “self-cleavage kobs at 40 uM GlcN6P” value in the data set with glucosamine-6-phosphate [1] was below 1e-05 s⁻¹. In the data set with glucosamine-6-phosphate [2], the “self-cleavage kobs at 640 uM GlcN6P” value was below 1e-05 s⁻¹. The “self-cleavage kobs at 160 uM GlcN6P” value in the data set with glucosamine-6-phosphate [3] was below 1e-05 s⁻¹.

Regarding U31C A53G C70U, in the data set with glucosamine-6-phosphate [1], the “self-cleavage kobs at 40 uM GlcN6P” value turned out to be 0.000212 ± 4.6e-05 s⁻¹. Moreover, the “self-cleavage kobs at 640 uM GlcN6P” value in the data set with glucosamine-6-phosphate [2] is 0.00265 ± 0.00055 s⁻¹. For the same variant, the “self-cleavage kobs at 2500 uM GlcN6P” value in the data set with glucosamine-6-phosphate [5] worked out at 0.00272 ± 0.00079 s⁻¹.

Consider A36U G38C, for which, in the data set with glucosamine-6-phosphate [1], the “self-cleavage kobs at 40 uM GlcN6P” value is below 1e-05 s⁻¹. The “self-cleavage kobs at 640 uM GlcN6P” value with glucosamine-6-phosphate [2] is below 1e-05 s⁻¹. In addition, in the data set with glucosamine-6-phosphate [3], the “self-cleavage kobs at 160 uM GlcN6P” value was below 1e-05 s⁻¹. For the same variant, in the data set with glucosamine-6-phosphate [5], the “self-cleavage kobs at 2500 uM GlcN6P” value was below 1e-05 s⁻¹. Besides, in the data set with glucosamine-6-phosphate [4], the “self-cleavage kobs at 10000 uM GlcN6P” value was below 1e-05 s⁻¹.

Regarding G32C U65G, the “self-cleavage kobs at 40 uM GlcN6P” value with glucosamine-6-phosphate [1] was below 1e-05 s⁻¹. Moreover, the “self-cleavage kobs at 640 uM GlcN6P” value with glucosamine-6-phosphate [2] is below 1e-05 s⁻¹.

For U31G G40U, the “self-cleavage kobs at 40 uM GlcN6P” value in the data set with glucosamine-6-phosphate [1] came to 3.85e-05 ± 7.6e-06 s⁻¹. The “self-cleavage kobs at 640 uM GlcN6P” value with glucosamine-6-phosphate [2] worked out at 0.000515 ± 5.8e-05 s⁻¹. Also, the “self-cleavage kobs at 160 uM GlcN6P” value in the data set with glucosamine-6-phosphate [3] amounted to 0.000115 ± 1.6e-05 s⁻¹. For the same variant, in the data set with glucosamine-6-phosphate [5], the “self-cleavage kobs at 2500 uM GlcN6P” value is 0.00119 ± 0.00013 s⁻¹. For the same variant, the “self-cleavage kobs at 10000 uM GlcN6P” value in the data set with glucosamine-6-phosphate [4] is 0.00183 ± 0.0002 s⁻¹.

With A36C A39G, the “self-cleavage kobs at 40 uM GlcN6P” value with glucosamine-6-phosphate [1] was below 1e-05 s⁻¹. Moreover, the “self-cleavage kobs at 640 uM GlcN6P” value with glucosamine-6-phosphate [2] is below 1e-05 s⁻¹. Besides, the “self-cleavage kobs at 160 uM GlcN6P” value in the data set with glucosamine-6-phosphate [3] was below 1e-05 s⁻¹. Moreover, in the data set with glucosamine-6-phosphate [5], the “self-cleavage kobs at 2500 uM GlcN6P” value was below 1e-05 s⁻¹. In addition, the “self-cleavage kobs at 10000 uM GlcN6P” value with glucosamine-6-phosphate [4] was below 1e-05 s⁻¹.

For C16A G51C G60A, the “self-cleavage kobs at 40 uM GlcN6P” value with glucosamine-6-phosphate [1] was below 1e-05 s⁻¹. Besides, in the data set with glucosamine-6-phosphate [2], the “self-cleavage kobs at 640 uM GlcN6P” value was below 1e-05 s⁻¹.

For C34A A64C C70U, in the data set with glucosamine-6-phosphate [1], the “self-cleavage kobs at 40 uM GlcN6P” value is below 1e-05 s⁻¹. In addition, in the data set with glucosamine-6-phosphate [4], the “self-cleavage kobs at 10000 uM GlcN6P” value is below 1e-05 s⁻¹.

With A15G U57G C58U G59U C70U, the “self-cleavage kobs at 40 uM GlcN6P” value with glucosamine-6-phosphate [1] was below 1e-05 s⁻¹.

With U31C G44U C68A C71U, in the data set with glucosamine-6-phosphate [1], the “self-cleavage kobs at 40 uM GlcN6P” value was below 1e-05 s⁻¹. Further, in the data set with glucosamine-6-phosphate [4], the “self-cleavage kobs at 10000 uM GlcN6P” value was below 1e-05 s⁻¹.

With G38U G41U, in the data set with glucosamine-6-phosphate [1], the “self-cleavage kobs at 40 uM GlcN6P” value was below 1e-05 s⁻¹. Moreover, the “self-cleavage kobs at 640 uM GlcN6P” value in the data set with glucosamine-6-phosphate [2] is below 1e-05 s⁻¹. Besides, the “self-cleavage kobs at 160 uM GlcN6P” value with glucosamine-6-phosphate [3] was below 1e-05 s⁻¹. In addition, in the data set with glucosamine-6-phosphate [5], the “self-cleavage kobs at 2500 uM GlcN6P” value was below 1e-05 s⁻¹. In the data set with glucosamine-6-phosphate [4], the “self-cleavage kobs at 10000 uM GlcN6P” value is below 1e-05 s⁻¹.

As to A15U G60U C70G, the “self-cleavage kobs at 40 uM GlcN6P” value with glucosamine-6-phosphate [1] is below 1e-05 s⁻¹.

As for C34G A53G U56G C67U, the “self-cleavage kobs at 40 uM GlcN6P” value with glucosamine-6-phosphate [1] is below 1e-05 s⁻¹.

For G38C C67U, in the data set with glucosamine-6-phosphate [1], the “self-cleavage kobs at 40 uM GlcN6P” value is below 1e-05 s⁻¹. For the same variant, in the data set with glucosamine-6-phosphate [5], the “self-cleavage kobs at 2500 uM GlcN6P” value is below 1e-05 s⁻¹. For the same variant, the “self-cleavage kobs at 10000 uM GlcN6P” value with glucosamine-6-phosphate [4] was below 1e-05 s⁻¹.

Regarding A36U G44C, the “self-cleavage kobs at 40 uM GlcN6P” value with glucosamine-6-phosphate [1] is below 1e-05 s⁻¹. Further, in the data set with glucosamine-6-phosphate [3], the “self-cleavage kobs at 160 uM GlcN6P” value is below 1e-05 s⁻¹. Further, the “self-cleavage kobs at 2500 uM GlcN6P” value in the data set with glucosamine-6-phosphate [5] was below 1e-05 s⁻¹. Further, the “self-cleavage kobs at 10000 uM GlcN6P” value with glucosamine-6-phosphate [4] was below 1e-05 s⁻¹.
